Test results from patent US20250042994A1 (HAINAN SIMCERE ZAIMING PHARMACEUTICAL, published 2025).
Read-outs that look alike come from different tables or passages of the source.

How the values were obtained:
[1] = target: T1, cynomolgus monkey CD19 on peripheral blood B cells (cynomolgus monkey (Macaca fascicularis), UniProt A0A2K5W8L9 20-557); experiment: FACS, cynomolgus PBMC, CD20+ B cells
T1 construct: whole, on cells; also called cynomolgus monkey B cells
T1 sequence: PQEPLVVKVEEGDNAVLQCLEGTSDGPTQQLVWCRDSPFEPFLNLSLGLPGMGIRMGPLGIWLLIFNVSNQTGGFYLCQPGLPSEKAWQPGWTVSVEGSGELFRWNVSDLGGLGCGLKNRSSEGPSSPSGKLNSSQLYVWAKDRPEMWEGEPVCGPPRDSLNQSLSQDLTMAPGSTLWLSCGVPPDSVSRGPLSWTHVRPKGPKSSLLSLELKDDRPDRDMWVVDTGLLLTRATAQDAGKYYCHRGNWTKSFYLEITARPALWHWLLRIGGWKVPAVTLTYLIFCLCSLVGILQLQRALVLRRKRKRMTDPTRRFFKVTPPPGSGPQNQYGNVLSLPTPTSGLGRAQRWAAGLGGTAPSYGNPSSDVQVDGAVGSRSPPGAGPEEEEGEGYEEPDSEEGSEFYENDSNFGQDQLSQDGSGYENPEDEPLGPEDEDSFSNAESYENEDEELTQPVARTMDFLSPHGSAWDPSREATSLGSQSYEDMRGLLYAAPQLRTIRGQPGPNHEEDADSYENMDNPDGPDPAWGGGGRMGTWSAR
Procedure: The monkey peripheral blood mononuclear cells were extracted from fresh cynomolgus monkey peripheral blood (purchased from Shanghai Medicilon Inc.) according to the instructions of Ficoll-Paque Plus (purchased from GE Healthcae, catalog number: 171440-02). After the cell suspension was centrifuged, the cells were resuspended in PBS containing 1% BSA, and then the cells were counted. […] The mixture was incubated for 1 h at room temperature. After washing the cells three times, APC-labeled secondary antibody anti-human IgG Fc (catalog number: 409306, purchased from Biolegend) was added. After incubation at room temperature in the dark for 30 minutes, the cells were washed 5 times, gently resuspended with PBS containing 1% BSA, and detected and analyzed by FACS (FACS Canto™, purchased from BD Company), in which CD20 was used as a marker of B cells to gate the CD20-positive B cell population, the proportion of the chimeric antibody-labeled positive cells was analyzed, and the proportion of the chimeric antibody positive cell population to B cell population was calculated after treatments with the chimeric antibodies at the concentrations of 100 nM, 10 nM and 1 nM, respectively.

[2] = target: T2, monkey CD19 on HEK293T-monkey CD19 cells (monkey); experiment: FACS on HEK293T-monkey CD19 cells
T2 construct: whole, on cells
Procedure: (§1) After the digestion was terminated, the cells were washed 2 times with a PBS buffer; and for suspension cell Raji, the supernatant of the medium was discarded by directly centrifugation, and the cell pellet was washed 2 times with PBS. After counting the cells in the previous step, the cell pellet was resuspended with [PBS+2% (w/w) BSA] blocking solution to 2×10⁶ cells/ml, and added to a 96-well FACS reaction plate at 50 μl/well, and then the sample to be tested was added at 50 μl/well, and incubated on ice for 2 h. The obtained mixture was centrifuged and washed 3 times with a PBS buffer. […] The obtained mixture was centrifuged and washed 5 times with a PBS buffer, and FACS (FACS Canto™, purchased from BD Company) was used for detection and result analysis. Data analysis was performed by software (FlowJo) to obtain the mean fluorescence intensity (MFI) of the cells. And then software (GraphPad Prism8) was used for analysis, data fitting, and EC50 value calculation. […] The same method was used to detect the binding of the chimeric antibodies to endogenous CD19-negative cells, MoLT4 cells (purchased from ATCC, CRL-1582), and CHO-K1 cells.
(§2) HEK293T-monkey CD19 cells were subjected to FACS detection and data analysis according to the method in example 5.2. […] The same method was used to detect binding of the chimeric antibodies to HEK293T cells.

[3] = target: T2, monkey CD19 on HEK293T-monkey CD19 cells; experiment: FACS on HEK293T-monkey CD19 cells; remark: listed apart in the source
Procedure: as §1, §2

- Proportion of chimeric antibody positive cells to B cells (%) at 1 nM [1]: 3%
- Proportion of chimeric antibody positive cells to B cells (%) at 10 nM [1]: 14%
- Proportion of chimeric antibody positive cells to B cells (%) at 100 nM [1]: 71%
- EC50 [2]: 3 nM
- Maximum mean fluorescence intensity [2]: 85700
- EC50 [3]: 3.64 nM
- Maximum mean fluorescence intensity [3]: 28800
B1: 9G8-hIgG1 (antibody)
heavy: EVQLVQSGAEVKKPGESLKISCKGSGYSFTSYWIGWVRQMPGKGLEWMGIIYPGDSDTRYSPSFQGQVTISADKSISTAYLQWSSLKASDTAMYYCARGVSGIYNLHGFDIWGQGTLVTVSS[human IgG1 constant region cut from this listing]
light: DIQMTQSPSSLSASVGDRVTITCRASQSISSYLNWYQQKPGKAPKLLIYAASSLQSGVPSRFSGSGSGTDFTLTISSLQPEDFATYYCQQGRFGSPFTFGQGTKVEIKRTVAAPSVFIFPPSDEQLKSGTASVVCLLNNFYPREAKVQWKVDNALQSGNSQESVTEQDSKDSTYSLSSTLTLSKADYEKHKVYACEVTHQGLSSPVTKSFNRGEC
notes: control antibody
